Data on 39 compounds can be found in the supplement of paper PMC10326071.

The other results are listed elsewhere or left out. Most values come without repeats; read them as rough.

The subject of the assay is SARS-CoV-2 nsp3 SARS-unique domain core (SUD-core, nsp3 residues 413-676). The experiment in a line: apparent dissociation constant Kd (single-concentration BLI fit); higher = weaker binding. Particulars: 100 µM; 25 °C.
As to `O=c1[nH]c(=O)c2ncn([C@@H]3O[C@H](CO)[C@@H](O)[C@H]3O)c2[nH]1`, the “apparent dissociation constant Kd” value turned out to be 151 µM.

Take `CN[C@@H]1C[C@H]2O[C@@](C)([C@@H]1OC)n1c3ccccc3c3c4c(c5c6ccccc6n2c5c31)C(=O)NC4`: the “apparent dissociation constant Kd” value came out at 1670 µM.

Take `CC(C)c1c2cc(-c3ccnc(NC4CCC(NC5CCOCC5)CC4)n3)ccc2nn1C` (centres undefined): the “apparent dissociation constant Kd” value was 19 µM.

As to `Cc1nc(-c2cnn(C)c2)nc2c1[nH]c1ncc(-c3ccc(N4CCN(C)CC4)cc3)cc12`, the “apparent dissociation constant Kd” value came out at 379 µM.

With `OCCN(CCO)c1ccc(C(c2ccc(Cl)cc2)c2ccc(N(CCO)CCO)cc2)cc1`, the “apparent dissociation constant Kd” value is 4720 µM.

Take `CC(CCc1ccccn1)(CCc1ccccn1)C(=O)c1ccccc1`: the “apparent dissociation constant Kd” value stood at 327 µM.

In the case of `C[C@H]1CC[C@]2(NC1)O[C@H]1C[C@H]3[C@@H]4CC[C@H]5C[C@@H](O)CC[C@]5(C)[C@H]4CC[C@]3(C)[C@H]1[C@@H]2C`, the “apparent dissociation constant Kd” value was determined as 470 µM.

`COc1cc2nc(C)nc(N[C@H](C)c3cc(N)cc(C(F)(F)F)c3)c2cc1O[C@H]1CCOC1`: the “apparent dissociation constant Kd” value stood at 2100 µM.

Turning to `NC(=O)c1ccccc1Nc1ccnc(Nc2cccc(O)c2)n1`, the “apparent dissociation constant Kd” value is 1990 µM.

Regarding `Nc1ncnc2c1ncn2[C@H]1CC[C@@H](CO)O1`, the “apparent dissociation constant Kd” value stood at 138 µM.

With `O=c1ccn([C@H]2C[C@H](O)[C@@H](CO)O2)c(=O)[nH]1`, the “apparent dissociation constant Kd” value was 63.5 µM.

As for `COc1cc2c(N3CCN(C(=O)Nc4ccc(OC(C)C)cc4)CC3)ncnc2cc1OCCCN1CCCCC1`, the “apparent dissociation constant Kd” value was 21.3 µM.

With `O=C(CCCCCn1cc(Nc2ncc(Cl)c(Nc3ccc(Cl)cc3)n2)cn1)NO`, the “apparent dissociation constant Kd” value is 2130 µM.

With `O=c1cc(N2CCOCC2)oc2c(-c3ccccc3)cccc12`, the “apparent dissociation constant Kd” value came out at 744 µM.

As to `O=C(NC1CCOCC1)c1ccc(-c2cc(-c3cn[nH]c3-c3ccccn3)ccn2)cc1`, the “apparent dissociation constant Kd” value amounted to 6.98 µM.

Take `CNC(=O)c1ccc(-c2cnc3cnc(C(=O)N(C)c4ccc(Cl)cc4)cn23)cc1`: the “apparent dissociation constant Kd” value was 1890 µM.

Consider `CN(C)Cc1cccc(N=C(c2ccccc2)c2c(O)[nH]c3cc(C(N)=O)ccc23)c1`, for which the “apparent dissociation constant Kd” value came out at 96 µM.

`Cc1cc(-c2cc(O)ccc2Cl)cc2nnc(Nc3ccc(OCCN4CCCC4)cc3)nc12`: the “apparent dissociation constant Kd” value was 615 µM.

Consider `COc1cc2c(Oc3ccc4[nH]c(C)cc4c3F)ncnc2cc1OCCCN1CCCC1`, for which the “apparent dissociation constant Kd” value was 345 µM.

As for `COc1cc(N2CCOCC2)ccc1Nc1ncc(Cl)c(Nc2ccccc2NS(C)(=O)=O)n1`, the “apparent dissociation constant Kd” value was found to be 1430 µM.

On to `CCCCC[C@H](O)CC(=O)CCc1ccc(O)c(OC)c1`, for which the “apparent dissociation constant Kd” value was 5.52 µM.

As to `Cc1cc(N2CCOCC2)cc2[nH]c(-c3c(NC[C@@H](O)c4cccc(Cl)c4)cc[nH]c3=O)nc12`, the “apparent dissociation constant Kd” value worked out at 402 µM.

Turning to `C=CC(=O)Nc1ccc(CN2C(=O)N(c3cc(OC)cc(OC)c3)Cc3cnc(Nc4ccc(N5CCN(C)CC5)cc4)nc32)cc1`, the “apparent dissociation constant Kd” value came out at 1660 µM.

Turning to `CC(C)Oc1cc(Nc2nc(N[C@@H](C)c3ccc(F)cn3)ncc2Cl)[nH]n1`, the “apparent dissociation constant Kd” value is 101 µM.

For `COc1cc2ncnc(Nc3ccc(F)c(Cl)c3)c2cc1NC(=O)/C=C/CN1CCCCC1`, the “apparent dissociation constant Kd” value amounted to 3830 µM.

In the case of `Cc1noc(C)c1-c1ccc(-c2cc(C(N)=O)c(NC(N)=O)s2)c(O[C@H]2CCNC2)c1`, the “apparent dissociation constant Kd” value was determined as 1130 µM.

Regarding `Cc1nc2c(NCc3cccc(S(C)(=O)=O)c3)nccn2c1-c1ccc(O)c(F)c1`, the “apparent dissociation constant Kd” value is 1760 µM.

Regarding `O=c1[nH]ccc2nc(-c3ccc(CN4CCC(c5nc(-c6ccccn6)n[nH]5)CC4)cc3)c(-c3ccccc3)cc12`, the “apparent dissociation constant Kd” value amounted to 22.1 µM.

Regarding `N#CC(c1ccnc(OCc2ccc(CN3CCOCC3)cc2)n1)c1nc2ccccc2s1` (centres undefined), the “apparent dissociation constant Kd” value was 89.5 µM.

For the compound `C[C@@H]1CC[C@@]2(OC1)O[C@H]1C[C@H]3[C@@H]4CC=C5C[C@@H](O[C@@H]6O[C@H](CO)[C@@H](O[C@@H]7O[C@@H](C)[C@H](O[C@@H]8O[C@@H](C)[C@H](O)[C@@H](O)[C@H]8O)[C@@H](O)[C@H]7O)[C@H](O)[C@H]6O[C@@H]6O[C@@H](C)[C@H](O)[C@@H](O)[C@H]6O)CC[C@]5(C)[C@H]4CC[C@]3(C)[C@@]1(O)[C@@H]2C`, the “apparent dissociation constant Kd” value came out at 1260 µM.

Regarding `Cc1cn([C@H]2C[C@@H](N=[N+]=[N-])[C@@H](CO)O2)c(=O)[nH]c1=O`, the “apparent dissociation constant Kd” value is 1540 µM.

With `Cc1nc2ccc(-n3ncc(C(=O)c4cc5ccccc5[nH]4)c3N)cc2[nH]1`, the “apparent dissociation constant Kd” value amounted to 110 µM.

With `CNc1nc(N)nc2c1ncn2[C@@H]1O[C@H](CO[P@@](=O)(N[C@@H](C)C(=O)OC(C)C)Oc2ccccc2)[C@@H](O)[C@@]1(C)F`, the “apparent dissociation constant Kd” value worked out at 18700 µM.

Take `COc1ncc(-c2ccc3nccc(C#CCN4CCN(S(C)(=O)=O)CC4)c3c2)cc1NS(=O)(=O)c1ccc(F)cc1F`: the “apparent dissociation constant Kd” value is 152 µM.

In the case of `Cc1ccc(NC(=O)c2ccnc(C(F)(F)F)c2)cc1-c1cc(OCCO)nc(N2CCOCC2)c1`, the “apparent dissociation constant Kd” value worked out at 2990 µM.

Take `CCCCCC1CC1CC1CC1CCCCCCCC(=O)OC` (centres undefined): the “apparent dissociation constant Kd” value was 957 µM.

As for `CCN(C)C(=O)c1ccc2c(C(=Nc3ccc(CN4CCCCC4)cc3)c3ccccc3)c(O)[nH]c2c1`, the “apparent dissociation constant Kd” value is 1140 µM.

For `Cc1cn([C@H]2C[C@H](F)[C@@H](CO)O2)c(=O)[nH]c1=O`, the “apparent dissociation constant Kd” value turned out to be 103 µM.

With `N#Cc1ccc2ncnc(NCCc3ccccc3)c2c1`, the “apparent dissociation constant Kd” value amounted to 937 µM.
